# Assay results from the supplement of paper PMC3334620.
# Whole data set: some 33,000 sequences, median “E-score (-0.5 to 0.5)” near -0.016, cut for the highest 2% near 0.31. This is one part of the list.
# Molecular target: Cst6 (UniProt P40535)
# Assay: PBM E-score (8-mer binding enrichment) (E-score (-0.5 to 0.5)); higher = stronger / more preferred TF binding; most listed sequences are background and not binding sites
# Settings: protein concentration: 200 nM; construct: GST-DNA-binding domain
# Outline: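 Universal all-10-mer Agilent arrays, fresh or stripped once, were converted to double-stranded form by primer extension. GST-tagged yeast transcription factors from PURExpress in vitro transcription/translation, full-length or DNA-binding domain only, were applied at about 100-200 nM and detected with fluorescent anti-GST. After masliner normalisation, the Universal PBM Analysis Suite scored each ungapped eight-base word together with its reverse complement by E-score.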
row,Sequence,PBM E-score
1,ATGCATCC,-0.233
2,GAATCCTA,0.0178
3,CCTGCACA,-0.179
4,ATGCATAA,0.117
5,CCCGGTAC,-0.279
6,CTTGGTGC,-0.106
7,CTGTGCAA,-0.00223
8,CCGTGACC,-0.145
9,AACGGTGT,-0.15
10,GCAGTGAA,0.17
11,CAGTACTC,-0.183
12,CACACATA,0.0581
13,CCTGAGCG,-0.119
14,TACGTCAA,0.484
15,ATTCCTTA,-0.0647
16,ACCATTAA,0.253
17,AACCCAGA,-0.145
18,AACTAATG,0.158
19,GATTAGCC,-0.00016
20,CAATGCCG,0.105
21,TATTCTCA,0.122
22,AAATACGG,0.167
23,AATTTGCC,-0.0123
24,CTTCGACC,-0.123
25,ATACCAAT,-0.0495

row,Sequence,PBM E-score
1,CACATGAA,0.158
2,ATAAGAAC,0.248
3,TCTTCGAA,-0.0645
4,CTAAGAAC,0.029
5,AACTTATA,0.208
6,ATCAGCGG,-0.0295
7,CAGCACGG,0.0243
8,ACGAGTAG,0.0301
9,AGGCTCTC,-0.202
10,CCCTAGTC,-0.362
11,CCACCGTA,-0.0247
12,GAAGGCTC,-0.242
13,CTGACGCA,0.332
14,AGGCGCAA,0.0848
15,TTCCGCAA,-0.0874
16,ATCCGAAG,-0.0956
17,ATATCCCG,0.039
18,CCCGGACG,-0.0829
19,ATCACCAA,0.223
20,AGACCGCC,-0.199
21,CGCATTTA,0.179
22,CCCAGAGG,-0.294
23,ATCCCACC,0.0287
24,AGCAGTGC,-0.198
25,TTGCGCAA,0.0229

row,Sequence,PBM E-score
1,TAGGCGGA,-0.17
2,CGGTGGGC,-0.214
3,CAACCTTG,-0.004
4,AATTTACT,0.203
5,TAGGGTCA,-0.0703
6,ACATCGAC,0.0739
7,AACTTCGA,0.158
8,CTCAGATA,0.182
9,AGAACGTG,0.0642
10,AATAACAT,0.245
11,CTTATTGC,-0.0874
12,AAGTATGT,0.0609
13,CAGGCGCA,0.017
14,CTTCCGCC,-0.161
15,ATCATTGA,0.306
16,GTATGACA,0.323
17,ATGAGAGC,-0.0445
18,GAACTTAA,0.0707
19,TTAACGAA,0.224
20,AGGCACGC,0.0415
21,GTTTGCTA,0.0709
22,CCACTATC,-0.152
23,GTAACATA,0.0905
24,CTTGTAGA,-0.214
25,CGAACTAG,0.0382

row,Sequence,PBM E-score
1,CAGTTTCA,-0.0148
2,CGTCTATC,-0.0432
3,GTACCCAC,-0.165
4,CATAGTAC,0.0124
5,GAACCCTC,-0.366
6,GGTTCCGA,-0.119
7,AGCATTGC,-0.0787
8,GGGTACAA,-0.055
9,CGGCAAAG,-0.00661
10,ACGTTTCA,0.141
11,CGACCGGC,-0.127
12,ACCATCAC,0.143
13,GCGAACTA,0.0819
14,AAAATCCA,0.185
15,GACTACCC,-0.329
16,AATAGGCG,0.0415
17,AACTCTGT,0.0458
18,CGCCTACC,-0.109
19,AGACGTGC,0.013
20,AGCCTGTA,-0.142
21,GCGTAAGA,0.199
22,AACGGAGG,-0.125
23,AATCTGTA,0.0612
24,ATCACATC,0.176
25,GTCCTACA,-0.0568

row,Sequence,PBM E-score
1,ACTTGATC,0.105
2,GGACGTTA,0.174
3,AGCATAAG,-0.0844
4,AGACTGCT,-0.189
5,AGATCTGC,0.0314
6,GCGTTCCC,-0.223
7,AAACATCT,0.0978
8,GGTATCCA,-0.143
9,GTTGGTCA,0.163
10,AACTAGCA,-0.141
11,ACATCCTG,0.0542
12,AGTAATCG,0.118
13,AAACGCCG,0.36
14,AGTCTAAC,-0.146
15,ACCTCTGA,0.0406
16,GAGAGGGC,-0.369
17,GCAACACA,-0.0263
18,AACCATGT,0.0652
19,ACCGAATG,0.147
20,CATTTAAC,0.0726
21,CCCAAGGA,-0.139
22,CTCGCCAC,-0.137
23,GTATCGAC,0.0658
24,ATTCACCG,0.132
25,CAACGGGG,-0.0854

row,Sequence,PBM E-score
1,CCGTCAAG,-0.129
2,AACAATAA,0.204
3,ATCACCAT,0.294
4,AGTGATTC,0.112
5,ACGGTAAT,0.126
6,ACATCAGA,0.16
7,AAAGGCCC,-0.0654
8,AGCATTCA,-0.0134
9,GATGCATC,0.191
10,ATCCATAA,0.176
11,GTAGAGTA,0.0275
12,GGTCACAA,-0.0375
13,GACTAATC,0.0508
14,GTCCCAAC,0.082
15,CAAGGTGC,-0.0713
16,ACTAATTC,0.103
17,AACCTGGC,-0.199
18,CGAGATGA,0.074
19,CCCCTGGC,-0.364
20,CAGTGAAG,0.00753
21,ATCTTGGG,-0.0808
22,GTGTGACA,0.221
23,GGACGGCA,0.25
24,CGGATCGC,-0.025
25,AACTTTCT,0.091

row,Sequence,PBM E-score
1,ATTTCTCC,0.0767
2,ATAGTAGC,0.0615
3,AATGCGCC,0.00626
4,GGAAGGCA,-0.022
5,CCATTTTA,0.151
6,CGTGGCCA,-0.171
7,GTTGATAA,0.196
8,GGCCTCCA,-0.18
9,ACGGCTTC,0.0724
10,GAGAATGA,0.232
11,CGACCACG,0.0309
12,CTGCAGCC,-0.19
13,ATCGCCGC,0.186
14,GTCCGCGA,-0.173
15,AAGGTGCC,-0.136
16,AGTATGGC,-0.175
17,CTGACAAC,-0.0434
18,AGGTTTCG,-0.141
19,ATCAGGAC,-0.0693
20,AAGCTGAA,-0.125
21,ACTTGCCG,0.00801
22,ATCGAGTG,0.0765
